# Data from patent US20230039157A1 (HCW BIOLOGICS, published 2023).
# T1: IL-2Rβ and common γ chain on 32Dβ cells
# T1 sequence (P16297 whole entry, species assumed, looked up): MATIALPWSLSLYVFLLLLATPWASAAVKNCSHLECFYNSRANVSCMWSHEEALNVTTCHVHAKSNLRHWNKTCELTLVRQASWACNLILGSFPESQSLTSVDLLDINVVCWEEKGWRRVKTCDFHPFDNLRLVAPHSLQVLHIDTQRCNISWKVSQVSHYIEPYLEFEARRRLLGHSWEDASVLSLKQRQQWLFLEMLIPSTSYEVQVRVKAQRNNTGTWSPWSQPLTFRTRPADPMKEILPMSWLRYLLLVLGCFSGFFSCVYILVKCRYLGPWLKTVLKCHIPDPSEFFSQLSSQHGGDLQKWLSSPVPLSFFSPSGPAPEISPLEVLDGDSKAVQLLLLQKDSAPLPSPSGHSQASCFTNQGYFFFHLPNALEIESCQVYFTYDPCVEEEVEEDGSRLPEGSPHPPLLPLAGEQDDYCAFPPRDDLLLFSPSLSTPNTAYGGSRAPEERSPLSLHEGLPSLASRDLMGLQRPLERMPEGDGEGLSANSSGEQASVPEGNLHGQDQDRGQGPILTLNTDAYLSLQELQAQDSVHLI
# T1 sequence (P34902 whole entry, species assumed, looked up): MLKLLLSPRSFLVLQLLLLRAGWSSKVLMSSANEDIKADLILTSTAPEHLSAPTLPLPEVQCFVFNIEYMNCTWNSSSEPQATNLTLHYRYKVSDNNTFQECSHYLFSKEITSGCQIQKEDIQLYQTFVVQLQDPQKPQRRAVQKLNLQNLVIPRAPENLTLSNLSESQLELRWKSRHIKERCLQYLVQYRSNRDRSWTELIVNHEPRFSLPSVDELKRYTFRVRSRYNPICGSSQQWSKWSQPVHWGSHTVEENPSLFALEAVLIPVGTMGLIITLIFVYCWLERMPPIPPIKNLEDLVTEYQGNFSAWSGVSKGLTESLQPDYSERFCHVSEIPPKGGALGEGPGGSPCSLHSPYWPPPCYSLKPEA
# Target: T1, IL-2Rβ and common γ chain on 32Dβ cells
# Assay: cell-based or functional assay
binder,measurement,value
IL-15/TF/IL-15 single-chain chimeric polypeptide (other) [omitted - about 120 residues]SGTTNTVAAYNLTWKSTNFKTILEWEPKPVNQVYTVQISTKSGDWKSKCFYTTDTECDLTDEIVKDVKQTYLARVFSYPAGNVESTGSAGEPLYENSPEFTPYLETNLGQPTIQSFEQVGTKVNVTVEDERTLVRRNNTFLSLRDVFGKDLIYTLYYWKSSSSGKKTAKTNTNEFLIDVDKGENYCFSVQAVIPSRTVNRKSTDSPVECMGQEKGEFRE[omitted - about 120 residues],"EC50 of 32Dβ cell proliferation (WST1, absorbance at 450 nM)",0.161 nM
